Data as given in PubChem BioAssay AID1508623 (National Center for Advancing Translational Sciences (NCATS), 2021).
About 450 (0.94%) of roughly 48,000 compounds were called active. Another 19% or so got no clear call; they are omitted. Calls follow the shape of the dose curve; as a rule, active = well fitted inhibition curve with a large enough effect; inconclusive = small, poorly fitted or top-dose-only effect; inactive = no such curve, though single readings can be large or run the other way. The list shows a part of the results.

test: Primary qHTS for Identification of Small Molecule Inhibitors of Huntingtin Promoter Activity; settings: HEK293 HTT promoter firefly luciferase reporter (activity 0% = vehicle and -100% = no light), 24 h; series mostly up to 57.5 µM; activity change, negative = inhibition: at the top concentration; also: nearly all actives have a fitted effect of over 50% in size
In short: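 HEK293 luciferase promoter-reporter cells (2,500/well) plated 24 h, then compounds added at up to 57.5 uM final for 24 h at 37 °C. Firefly luminescence by Dual-Glo, normalized to vehicle (0%) and zero RLU (-100%).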

Activity change, negative = inhibition, inactive:
CC(=O)N1c2ccc(S(=O)(=O)NCC3CCC(C(=O)Nc4ccc(C)c(C)c4)CC3)cc2CC1C (centres undefined) -2.34%
COCCCn1c(=N)c(C(=O)NCc2cccnc2)cc2c(=O)n3cc(C)ccc3nc21 1.94%
COc1ccc(OC)c(Nc2ncnc3c2nc2n3CCCC2)c1 8.25%
CCOc1ccc(NC(=O)c2nc3nc(C)cc(C(F)F)n3n2)cc1 -0.747%
Cc1cc(C)c2c(-n3cccc3)c(C(=O)NCc3cccc(F)c3)sc2n1 -11.3%
CCc1nnc(SCc2ccc(OC)cc2)c2cc3sc(C)cc3n12 4.2%
Cc1cc(C)c(NC(=O)CCn2c(=O)c3cccn3c3ccccc32)c(C)c1 3.55%
CCN1CCN(C(c2ccc(SC)cc2)c2c(O)cc(C)n(Cc3ccco3)c2=O)CC1 (centres undefined) -7.8%
Oc1ccc(-c2nc(-c3ccccc3)c(-c3ccc(Br)cc3)[nH]2)cc1 -20.6%
Cc1nn(-c2ccccc2)c2c1cc1c(=O)n(C)c(=O)nc-1n2-c1cccc(Cl)c1 -14.7%
O=C(COC(=O)C(Cc1c[nH]c2ccccc12)NC(=O)c1ccc(Cl)cc1)c1ccc(Cl)cc1 (centres undefined) -25.1%
COc1ccc(-c2cc(=O)c3cc(OCC(=O)OC(C)C)ccc3o2)cc1 -12.1%
CN(C)CC/C=C1/c2ccccc2COc2ccc(CC(=O)O)cc21 -3.97%
Cc1ccc(NC(=O)Cn2c(=O)n(CCCCC(=O)NCCc3ccc(Cl)cc3)c(=O)c3ccccc32)cc1 -8.81%
COc1ccc(CCNC(=O)c2oc(=O)c3ccccc3c2-c2ccccc2)cc1OC -17.3%
COc1ccc(CNC(=O)CN2C(=O)COc3ccc(S(=O)(=O)N4CCC(C)CC4)cc32)cc1 -0.647%
COc1cc(NC(=O)CCS(=O)(=O)c2nc(-c3ccc4c(c3)OCO4)cc(C(F)(F)F)n2)cc(OC)c1OC -3.49%
COC(=O)c1sc(N2C(=O)c3oc4ccccc4c(=O)c3C2c2ccc(O)cc2)nc1C (centres undefined) -15.4% [at 11.5 µM]
COCCCNC(=O)CSc1nc2cc3c(cc2c(=O)n1CCCCCC(=O)NCc1ccc2c(c1)OCO2)OCO3 -8.36%
CCCCNC(=O)C1CCC(CNS(=O)(=O)c2ccc(C)cc2)CC1 (centres undefined) -5.29%
Cc1nc(NC(=O)c2c(-c3ccccc3)c(-c3ccccc3)nn(C)c2=O)sc1C 17.2%
Cc1cccc(N2CCN(C(=O)CN3C(=O)COc4ccc(S(=O)(=O)N5CCOCC5)cc43)CC2)c1C -7.96%
Fc1ccc(Nc2nc(SCc3ccccc3F)nc3ccccc23)cc1 -28.6%
Cc1ccc(Cn2c(SCC(=O)NCc3ccccc3Cl)nc3ccsc3c2=O)cc1 -15.1%
COc1cc(NC(=O)CCCc2nnc3n(CC(C)C)c(=O)c4sccc4n23)cc(OC)c1 -16.6%
Cc1cc([N+](=O)[O-])ccc1NC(c1nnc(-c2ccccc2)o1)c1ccccc1F (centres undefined) -11.1%
CC(=O)N1CCc2cc(Br)cc(S(=O)(=O)CCC(=O)N3CCN(c4ccccc4)CC3)c21 -2.12%
Cc1cc(-c2ccc(C)c(S(=O)(=O)NCCc3ccc(S(N)(=O)=O)cc3)c2)on1 -19.3%
CC(C)c1ccc(NS(=O)(=O)c2ccc3[nH]cc(C(=O)NCC4CCCO4)c(=O)c3c2)cc1 (centres undefined) 2.97%
CCOc1ccc2nc(N3CCCC(C(=O)Nc4ccc(OC)c(Cl)c4)C3)sc2c1 (centres undefined) 3.42%
CN(C)S(=O)(=O)c1ccc2c(c1)N(CC(=O)Nc1ccc(F)cc1)C(=O)CS2 -6.39%
COC(=O)c1ccccc1NC(=O)c1cc(C)nc2c1c(C)nn2-c1ccc(C)cc1 -8.25%
COc1cc(OC)c(NC(=O)n2ncc3cc(Cl)ccc32)cc1Cl -0.589%
COc1ccc(C2CC(=O)c3c([nH]c(C(=O)OC4CCCCCC4)c3C)C2)cc1 (centres undefined) -18.9%
COc1ccc(OC)c(NC(=O)CSC2=Nc3ccccc3C3=NC(CC(=O)NCc4ccc(F)cc4)C(=O)N23)c1 (centres undefined) -24.2%
COc1cccc(OCC(=O)NC2CC(=O)N(c3ccc4c(c3)OCCO4)C2)c1 (centres undefined) -10.2%
Cc1ccc(Cl)cc1NC(=O)NCc1cccn1Cc1ccc(F)cc1 -17.2%
CC(C(=O)O)c1ccc(C(=O)c2ccccc2)s1 (centres undefined) 32.6%
COc1ccc2c(c1)c1c(c(=O)n(-c3ccc(OC)c(OC)c3)c(=O)n1CC(=O)N1CCCC1)n2C -10.1%
Cc1ccc(NC(=O)N2CCN(c3nnc(C)c4c(C)n(-c5ccc(Cl)cc5)nc34)CC2)c(C)c1 -6.12%
Cc1ccc(CNC(=O)CSc2ncc(S(=O)(=O)c3ccc(C)c(Cl)c3)c(=O)[nH]2)cc1 -17.3%
CCOc1ccc(OCC)c(NC(=O)CCc2nc3cccnc3n2Cc2cccs2)c1 -24.3%
COc1cc(Cl)c(C)cc1NC(=O)CSc1nc2c(c(=O)[nH]1)CCCC2 -7.73%
CN(C)c1ccc(CNC(=O)c2cnc3sc(N4CCCCCC4)nn3c2=O)cc1 -3.6%
COC(=O)N1CCCc2cc(S(=O)(=O)N3CCN(c4ccccc4)CC3)ccc21 -18.5%
CCCCNC(=O)CCCn1c(=O)c2ccccc2n(Cc2c(C)cc(C)cc2C)c1=O -9.88%
Cc1cccc(Cc2c(C)nc3nc(SCc4ccccc4Cl)nn3c2C)c1 -7.62%
Cc1ccc(C)c(Cn2c(=O)n(CCC(=O)NCc3ccc4c(c3)OCO4)c(=O)c3sccc32)c1 -11.8%
COc1ccc(C2CC(=O)Nc3c2c(=O)n(C)c2nc4ccccc4n32)cc1 (centres undefined) -13.5%
COc1ccc(-c2noc(-c3ccc(C)cc3Cl)n2)cc1OC 35.6%
CS(=O)(=O)n1nc(-c2ccco2)nc1NCc1ccccc1Cl 11.8%
COc1ccc(C(=O)c2cn(Cc3cccc(C)c3)c3cc4c(cc3c2=O)OCO4)cc1 -27.1%
COc1cc(Cl)c(C)cc1NC(=O)CSc1cc(-c2ccccc2)nc(C)n1 -6.78%
CCOC(=O)c1[nH]c(C)c(C(=O)NCc2cccc(OC)c2)c1C -23.6%
CCc1ccccc1NC(=O)Cn1c(=O)n(CC(=O)NCCc2ccccc2)c(=O)c2ccccc21 -5.42%
COc1ccc(CC(=O)NCCc2csc(-c3ccc(C(F)(F)F)cc3)n2)cc1 -7.49%
COC(=O)c1sc2cccc(F)c2c1S(=O)(=O)Nc1ccc(C)cc1Cl -1.18%
Cn1c(=O)c2c(SCC(=O)NCc3ccc(F)cc3)nc(-c3ccccc3Cl)nc2n(C)c1=O 0%
NC(=O)NS(=O)(=O)c1ccc(N)cc1 3.99%
